Laboratory results published in PubChem BioAssay AID504333 (National Center for Advancing Translational Sciences (NCATS), 2011).
The whole screen tested about 360,000 compounds, of which about 16,000 (4.4%) were called active. The inconclusive results got no clear call from the source; some entries with a clear call stand among them for comparison. Calls come from the whole dose curve; as a rule, active = well fitted inhibition curve with a large enough effect; inconclusive = small, poorly fitted or top-dose-only effect; inactive = no such curve, though single readings can be large or run the other way. Where the call is inconclusive, the potency comes from a doubtful curve fit.

target: Bromodomain adjacent to zinc finger domain protein 2B (Homo sapiens) (UniProt Q9UIF8); experiment: qHTS Assay for Inhibitors of BAZ2B; details: AlphaScreen BAZ2B-H3K14Ac peptide displacement; activity change, negative = inhibition: at 114 µM (top of the series); note: nearly all actives have a fitted effect of over 60% in size
Outline: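 In this displacement format the biotinylated H3(5-23) peptide acetylated at Lys14 serves as ligand at 50 nM, with BAZ2B at 50 nM in PBS pH 7.4 containing 0.01% Tween-20. Donor and acceptor beads are 10 ug/mL final.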
% is set by controls: 0 for no effect and ±100 for the full control effect; potency is the fitted concentration of half-maximal effect; tags give direction and shape of the fitted curve.

UniProt Q9UIF8, sequence (Q9UIF8 whole entry, looked up, the tested form may be a part): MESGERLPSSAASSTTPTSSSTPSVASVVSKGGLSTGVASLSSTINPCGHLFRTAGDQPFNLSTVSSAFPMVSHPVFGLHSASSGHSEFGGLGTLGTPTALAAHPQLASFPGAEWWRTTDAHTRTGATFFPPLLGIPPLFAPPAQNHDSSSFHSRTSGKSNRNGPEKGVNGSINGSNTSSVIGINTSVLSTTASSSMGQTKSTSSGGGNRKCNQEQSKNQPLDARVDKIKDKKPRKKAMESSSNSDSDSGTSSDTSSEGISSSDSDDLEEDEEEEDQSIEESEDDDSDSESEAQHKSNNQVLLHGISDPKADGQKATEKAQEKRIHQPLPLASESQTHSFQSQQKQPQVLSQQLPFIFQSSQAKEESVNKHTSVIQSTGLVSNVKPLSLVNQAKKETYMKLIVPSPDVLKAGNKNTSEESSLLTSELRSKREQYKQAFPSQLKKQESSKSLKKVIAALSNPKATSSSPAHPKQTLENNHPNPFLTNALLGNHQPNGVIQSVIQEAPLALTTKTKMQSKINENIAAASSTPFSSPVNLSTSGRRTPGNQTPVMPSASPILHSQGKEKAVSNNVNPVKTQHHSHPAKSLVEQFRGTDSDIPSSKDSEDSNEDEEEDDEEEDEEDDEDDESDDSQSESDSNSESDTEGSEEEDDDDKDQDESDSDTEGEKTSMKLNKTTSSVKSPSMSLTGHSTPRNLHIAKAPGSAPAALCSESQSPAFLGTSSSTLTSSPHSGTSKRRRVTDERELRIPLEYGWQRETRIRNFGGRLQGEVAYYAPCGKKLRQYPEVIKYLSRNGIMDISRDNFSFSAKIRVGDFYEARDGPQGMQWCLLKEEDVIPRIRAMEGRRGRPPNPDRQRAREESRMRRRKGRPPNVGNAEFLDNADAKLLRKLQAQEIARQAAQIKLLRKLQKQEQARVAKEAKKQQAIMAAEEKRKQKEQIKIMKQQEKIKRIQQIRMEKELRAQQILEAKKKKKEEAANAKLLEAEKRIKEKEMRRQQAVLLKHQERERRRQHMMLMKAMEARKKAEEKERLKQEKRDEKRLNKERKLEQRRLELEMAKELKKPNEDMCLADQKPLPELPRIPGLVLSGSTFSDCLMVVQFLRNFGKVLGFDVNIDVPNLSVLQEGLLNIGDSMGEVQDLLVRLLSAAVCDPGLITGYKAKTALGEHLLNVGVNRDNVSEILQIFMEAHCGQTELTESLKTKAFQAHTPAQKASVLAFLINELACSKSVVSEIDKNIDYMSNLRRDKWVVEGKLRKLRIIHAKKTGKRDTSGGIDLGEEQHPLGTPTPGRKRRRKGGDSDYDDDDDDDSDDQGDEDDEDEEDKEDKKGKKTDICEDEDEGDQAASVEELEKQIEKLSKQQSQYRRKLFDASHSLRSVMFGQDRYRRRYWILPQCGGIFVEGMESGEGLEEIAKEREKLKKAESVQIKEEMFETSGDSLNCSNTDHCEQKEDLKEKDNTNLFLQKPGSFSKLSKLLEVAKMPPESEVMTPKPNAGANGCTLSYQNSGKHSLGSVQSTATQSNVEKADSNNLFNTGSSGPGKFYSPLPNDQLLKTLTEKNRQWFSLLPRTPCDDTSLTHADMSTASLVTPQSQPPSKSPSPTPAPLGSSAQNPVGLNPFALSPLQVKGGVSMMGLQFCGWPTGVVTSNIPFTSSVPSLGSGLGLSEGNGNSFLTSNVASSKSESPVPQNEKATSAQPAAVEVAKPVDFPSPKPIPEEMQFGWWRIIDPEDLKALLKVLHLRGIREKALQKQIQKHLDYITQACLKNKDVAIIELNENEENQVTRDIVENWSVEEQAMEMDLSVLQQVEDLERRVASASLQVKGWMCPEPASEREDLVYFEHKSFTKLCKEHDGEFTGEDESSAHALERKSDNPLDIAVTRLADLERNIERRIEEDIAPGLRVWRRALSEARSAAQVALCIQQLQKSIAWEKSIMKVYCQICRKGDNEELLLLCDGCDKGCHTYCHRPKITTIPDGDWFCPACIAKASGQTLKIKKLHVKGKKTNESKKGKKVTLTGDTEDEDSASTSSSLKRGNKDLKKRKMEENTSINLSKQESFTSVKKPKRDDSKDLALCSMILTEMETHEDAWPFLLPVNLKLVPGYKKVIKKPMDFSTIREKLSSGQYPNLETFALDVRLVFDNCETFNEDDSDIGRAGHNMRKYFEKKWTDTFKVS

| Structure (SMILES) | Potency | activity change, negative = inhibition |
| --- | --- | --- |
| COc1cc(N2CCOCC2)ccc1/C=C1\C(=O)NC(=O)N(Cc2ccc3c(c2)OCO3)C1=O | inconclusive: 89.1 µM [inhibitor, single point] | – |
| CC(=NCCCn1ccnc1)c1c(O)n(Cc2ccccc2)c(=O)[nH]c1=O | inconclusive: 100 µM [inhibitor, single point] | – |
| COc1cc(OC)c(OC)cc1CNCCc1ccc(OC)c(OC)c1 | inconclusive: 50.1 µM [inhibitor, partial curve] | – |
| Cc1ccc(NC(=O)CCCn2c(=O)oc3ccccc32)c(O)c1 | inconclusive: 25.1 µM [inhibitor, single point] | – |
| COc1ccc2c(c1OC)C(=O)OC2c1c(O)n(Cc2ccc(F)cc2)c(=O)[nH]c1=O (stereo unspecified) | inconclusive: 79.4 µM [inhibitor, single point] | – |
| CCCCC(=O)N/N=C/c1c(O)n(CCCC)c(=S)[nH]c1=O | active: 70.8 µM | – |
| O=C1NC(=O)C(=Cc2ccc3c(c2)OCO3)C(=O)N1 | inactive | – |
| O=C1NC(=O)N(Cc2cccs2)C(=O)/C1=C/c1ccc(N2CCOCC2)cc1 | inconclusive: 56.2 µM [inhibitor, partial curve] | – |
| CCN(CC)C(=O)c1ccc(NC(=O)c2cn(-c3ccccc3)nc2-c2ccc(OC)cc2)cc1 | inactive | – |
| CN1CCN(Cc2c(F)cccc2Cl)CC1 | active: 63.1 µM | – |
| COc1cccc(OCc2cc(C(=O)N3C[C@H]4C[C@@H](C3)c3cccc(=O)n3C4)no2)c1 | inconclusive: 89.1 µM [inhibitor, single point] | – |
| O=c1cccc2n1CC1CC2CN(Cc2c(Cl)cccc2Cl)C1 (stereo unspecified) | active: 56.2 µM | – |
| COc1ccccc1CN1CCN(C(=O)COc2ccccc2)CC1 | inconclusive: 89.1 µM [inhibitor, single point] | – |
| Oc1cccc2nc3ccccc3nc12 | inconclusive: 79.4 µM [inhibitor, partial curve] | – |
| COc1cc(/C=C2/C(=O)N(c3ccccc3)N=C2C)ccc1OS(=O)(=O)c1ccccc1 | active: 28.2 µM | – |
| Cc1cc(OCc2cc(C(=O)O)oc2C)c2c3c(c(=O)oc2c1)CCCC3 | inconclusive: 79.4 µM [inhibitor, single point] | – |
| O=c1c2ccccc2c(C=Nc2ccc(O)cc2)c(O)n1Cc1ccccc1 | inconclusive: 70.8 µM [inhibitor, single point] | – |
| COc1ccccc1N1CCN(C2CCCN(C(=O)COc3ccccc3Cl)C2)CC1 (stereo unspecified) | inconclusive: 39.8 µM [inhibitor, partial curve] | – |
| CCCCCCCSc1cc(OC)c(CCN(C)C)cc1OC | active: 25.1 µM | – |
| CN(CC(=O)Nc1ccc(N2CCOCC2)cc1)CC(=O)Nc1cccc(C#N)c1 | inconclusive: 89.1 µM [inhibitor, single point] | – |
| NC(=O)C1CCN(/C=C2\C(=O)NC(=O)N(Cc3ccco3)C2=O)CC1 | inconclusive: 79.4 µM [inhibitor, single point] | – |
| C=CCn1c(O)c(C(C)=Nc2ccc(C(=O)OCC)cc2)c(=O)[nH]c1=O | active: 79.4 µM | – |
| CCCCOc1ccc(C(C)=O)cc1Cc1c(O)[nH]c(=S)[nH]c1=O | inactive | – |
| O=C(N/N=C/c1c(O)n(C2CCCCC2)c(=S)[nH]c1=O)c1ccccc1O | active: 79.4 µM | – |

| Structure (SMILES) | Potency | activity change, negative = inhibition |
| --- | --- | --- |
| O=C1NC(=O)N(CCC2=CCCCC2)C(=O)/C1=C/c1cccs1 | inconclusive: 39.8 µM [inhibitor, partial curve] | – |
| ClC1=C(Cl)C(Cl)=C(Cl)C1=C/C=C/c1ccccc1 | active: 3.55 µM | – |
| COc1cccc(CNCCc2c[nH]c3ccccc23)c1 | active: 79.4 µM | – |
| Cc1ccccc1-n1c(-c2ccc([N+](=O)[O-])cc2)nc2ccccc2c1=O | inactive | – |
| Cc1ccc2c(c1)C1CN(C)CCC1N2C(=O)c1cn(-c2ccccc2)nc1-c1ccccc1 (stereo unspecified) | inconclusive: 79.4 µM [inhibitor, partial curve] | – |
| O=P(O)(O)COc1ccccc1O | inconclusive: 89.1 µM [inhibitor, single point] | – |
| C=Cn1ccnc1P(=S)(c1nccn1C=C)c1nccn1C=C | inactive | – |
| CCCCc1ccc2[nH]cc(CCN)c2c1 | inconclusive: 44.7 µM [inhibitor, partial curve] | – |
| O=C(c1ccc(CNS(=O)(=O)c2ccccc2)cc1)N1CCC2(CC1)OCCO2 | inconclusive: 89.1 µM [inhibitor, single point] | – |
| COc1ccc(-n2c(/C=C/c3ccc(O)c(OC)c3)nc3ccccc3c2=O)cc1 | inactive | – |
| Cc1cc(/C=C2\C(=O)NC(=O)N(c3ccc(Br)cc3)C2=O)c(C)n1-c1cc(C(=O)O)cc(C(=O)O)c1 | active: 56.2 µM | – |
| CN(C)c1ccc(NC(=O)CN2C(=O)CN=C(c3ccccc3)c3cc(Cl)ccc32)cc1 | active: 35.5 µM | – |
| O=C1NC(=O)N(Cc2ccco2)C(=O)/C1=C\c1cccn1CCOc1ccccc1 | active: 28.2 µM | – |
| Cc1ccccc1N1CCN(Cc2ccc3c(c2)OCO3)CC1 | inconclusive: 89.1 µM [inhibitor, single point] | – |
| CC(=O)Oc1ccccc1C(=O)Nc1ncc([N+](=O)[O-])s1 | inconclusive: 79.4 µM [inhibitor, single point] | – |
| O=C(O)COc1ccccc1 | inconclusive: 100 µM [inhibitor, single point] | – |
| COc1cc(OC)cc(C(=O)Nc2ccc(Br)cc2C(=O)c2ccccc2)c1 | inactive | – |
| CCC(=O)Oc1ccc(C(=O)Nc2cccc(C(=O)c3ccccc3)c2)cc1 | inconclusive: 5.01 µM [inhibitor, full curve, poor fit] | – |
| Oc1c(Cl)cc(Cl)cc1CN1CCN(Cc2ccccc2)CC1 | – | inconclusive: -57.4% [inhibitor] |
| O=C1NC(=O)N(c2ccccc2)C(=O)/C1=C/c1ccc([N+](=O)[O-])s1 | active: 35.5 µM | – |
| CN(C)C(=O)Oc1ccc2c(c1)O/C(=C\c1ccccc1)C2=O | inactive | – |
| Clc1ccc(CCC(Cn2ccnc2)Sc2c(Cl)cccc2Cl)cc1 (stereo unspecified) | inconclusive: 20 µM [inhibitor, full curve] | – |
| O=C1CCN(C(=O)C(Cl)Cl)N1 | inconclusive: 89.1 µM [inhibitor, single point] | – |
| O=C(Cc1ccccc1)N1CCN(C2CCCC2)CC1 | inconclusive: 79.4 µM [inhibitor, single point] | – |

| Structure (SMILES) | Potency | activity change, negative = inhibition |
| --- | --- | --- |
| COc1ccc(NC(=O)CCn2cc(C)c3ccccc32)cc1 | inconclusive: 50.1 µM [inhibitor, partial curve] | – |
| COc1ccc(-n2c(C)cc(C(=O)C[N+]34CCN(CC3)CC4)c2C)cc1 | inconclusive: 79.4 µM [inhibitor, single point] | – |
| CN1CCN(/N=C/c2c(O)n(C)c(=O)n(C)c2=O)CC1 | inactive | – |
| COc1ccc(C(c2c(O)c3ccccc3oc2=O)c2c(C)n(C)n(-c3ccccc3)c2=O)cc1 (stereo unspecified) | inactive | – |
| CCn1c(O)c(/C=N/NC(=O)c2ccncc2)c(=O)[nH]c1=S | active: 35.5 µM | – |
| Cc1c2ccncc2c(C)c2c1[nH]c1ccccc12 | active: 56.2 µM | – |
| CC/C(=N\NC(=O)c1ccccc1)c1c(O)n(C2CCCCC2)c(=O)[nH]c1=O | inconclusive: 70.8 µM [inhibitor, single point] | – |
| CC[C@@]1(O)C(=O)OCc2c1cc1n(c2=O)Cc2cc3c(NC(=O)CN)cccc3nc2-1 | inconclusive: 50.1 µM [inhibitor, partial curve] | – |
| Fc1ccc2c(c1)nnn2C1CCN(Cc2nnnn2C2CCCCC2)CC1 | inconclusive: 89.1 µM [inhibitor, single point] | – |
| CC(C)CS(=O)(=O)C1=NN2C(=N)/C(=C\c3ccc(OC(=O)c4ccco4)cc3)C(=O)N=C2S1 | inconclusive: 79.4 µM [inhibitor, single point] | – |
| CCOC(=O)c1c(C)n(Cc2ccco2)c2ccc(O)cc12 | inconclusive: 89.1 µM [inhibitor, single point] | – |
| O=C1NC(=O)N(c2ccccc2)C(=O)/C1=C\c1ccc([N+](=O)[O-])s1 | active: 35.5 µM | – |
| CCN1CCN(c2cc(N3CCCC3)c([N+](=O)[O-])cc2F)CC1 | inconclusive: 79.4 µM [inhibitor, single point] | – |
| CN(CC(=O)NC(=O)NCc1ccco1)CC(=O)Nc1ccccc1Cl | inconclusive: 56.2 µM [inhibitor, partial curve] | – |
| O=[N+]([O-])c1ccc(N2CCCC2)c2ncccc12 | inconclusive: 2.51 µM [inhibitor, full curve, poor fit] | – |
| COc1cc(OC)c(OC)cc1CNCCc1ccc2c(c1)OCO2 | inconclusive: 89.1 µM [inhibitor, single point] | – |
| O=c1c2ccccc2nc(/C=C/c2ccc(O)c(O)c2)n1-c1ccccc1 | inconclusive: 50.1 µM [inhibitor, partial curve] | – |
| O=C(O)c1cccc2c1NC(C(=O)O)C1CC(Sc3ccccc3[N+](=O)[O-])C(Cl)C21 (stereo unspecified) | active: 6.31 µM | – |
| NS(=O)(=O)c1ccc(-c2ccc(C=C3C(=O)NC(=S)NC3=O)o2)cc1 | active: 50.1 µM | – |
| Cc1cc(C=C2C(=O)N(C)C(=O)N(C)C2=O)c(C)n1-c1ccccc1 | inactive | – |
| CC/C(=C\C=C\[C@@H]1C=C[C@@H]2CCC[C@H]2[C@@H]1C(=O)c1ccc[nH]1)[C@@H]1O[C@@H]([C@@H](C)C(=O)O)CC[C@@H]1C | inconclusive: 35.5 µM [inhibitor, partial curve] | – |
| O=C1NC(=O)C(Cc2cccs2)C(=O)N1 | inactive | – |
| OCCN1CCN(CCCN2c3ccccc3Sc3ccc(C(F)(F)F)cc32)CC1 | inconclusive: 44.7 µM [inhibitor, partial curve] | – |
